Some of the results follow. The energies were worked out here from pooled read counts, against the library average; single values are noisy.
The sequences below were run against T1, Pho4 (S. cerevisiae) (UniProt P07270) (assay: relative binding free energy (BET-seq); higher = weaker binding). Details: reference: library average.
T1 sequence: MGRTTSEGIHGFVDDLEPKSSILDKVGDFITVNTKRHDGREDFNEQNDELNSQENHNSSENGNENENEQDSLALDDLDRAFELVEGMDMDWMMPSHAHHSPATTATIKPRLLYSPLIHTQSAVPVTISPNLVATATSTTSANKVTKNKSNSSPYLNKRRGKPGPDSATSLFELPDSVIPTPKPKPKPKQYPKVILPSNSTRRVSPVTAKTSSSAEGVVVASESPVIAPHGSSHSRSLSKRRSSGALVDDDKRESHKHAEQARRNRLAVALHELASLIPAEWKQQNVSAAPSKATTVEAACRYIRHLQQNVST

Row | Sequence | relative binding free energy
1 | GCAGTCACGTGGGGCT | 0.02 kcal/mol
2 | GAGAACACGTGGGTGG | -0.14 kcal/mol
3 | AGTTTCACGTGGCTGG | 0.17 kcal/mol
4 | CAAGGCACGTGTAGTG | -0.07 kcal/mol
5 | AGAGACACGTGGAGTG | -0.07 kcal/mol
6 | TTGGGCACGTGTCTAT | -0.11 kcal/mol
7 | GACGTCACGTGTGTTA | 0.16 kcal/mol
8 | TATGGCACGTGGACTT | -0.17 kcal/mol
9 | GGATACACGTGAGTAT | 0.34 kcal/mol
10 | TACGGCACGTGGGAGG | -0.21 kcal/mol
11 | CTGTTCACGTGGGGAG | 0.21 kcal/mol
12 | GGGGTCACGTGTTCGT | 0.11 kcal/mol
13 | TTCGTCACGTGAGGAG | 0.16 kcal/mol
14 | GGGTTCACGTGTTCAA | 0.31 kcal/mol
15 | TTTGTCACGTGCGCTG | -0.02 kcal/mol
16 | TTTTTCACGTGATGCC | 0.38 kcal/mol
17 | GGTTACACGTGAGTTT | 0.35 kcal/mol
18 | GTTTGCACGTGCAAGA | 0.16 kcal/mol
19 | ATAAACACGTGTTTGG | -0.05 kcal/mol
20 | TTGTACACGTGAGCTT | 0.14 kcal/mol
21 | TTAAGCACGTGCGGAG | -0.08 kcal/mol
22 | GTTGTCACGTGTGGTA | 0.25 kcal/mol
23 | TATGCCACGTGTGTAA | -0.07 kcal/mol
24 | GGTGACACGTGGTGGC | 0 kcal/mol
25 | GGGCTCACGTGGGACT | 0.37 kcal/mol

Row | Sequence | relative binding free energy
26 | AGGGCCACGTGTGCGA | 0.01 kcal/mol
27 | GGGAACACGTGTGTTT | 0.06 kcal/mol
28 | GTATTCACGTGAATGA | 0.6 kcal/mol
29 | AGTCGCACGTGTGTTT | 0 kcal/mol
30 | AGGTACACGTGTTTTG | 0.01 kcal/mol
31 | GTTATCACGTGTATAC | 0.26 kcal/mol
32 | ATGTTCACGTGTCAAG | 0.23 kcal/mol
33 | TTTAACACGTGTATGG | 0.04 kcal/mol
34 | ACATTCACGTGGGGGG | 0.17 kcal/mol
35 | GACTACACGTGGGGGG | 0.05 kcal/mol
36 | TTTTTCACGTGGGCCG | 0.21 kcal/mol
37 | TCTATCACGTGTTGAT | 0.13 kcal/mol
38 | AGGGTCACGTGGCTTC | 0.12 kcal/mol
39 | GGGTCCACGTGCTGGT | -0.03 kcal/mol
40 | GTTAGCACGTGTAGCG | 0.05 kcal/mol
41 | AGTGTCACGTGAGGTT | 0.19 kcal/mol
42 | TTGGGCACGTGCTGCG | -0.27 kcal/mol
43 | CTGGGCACGTGTTTAT | -0.14 kcal/mol
44 | TATTTCACGTGTAGAT | 0.45 kcal/mol
45 | AGTGACACGTGGTAGA | 0.01 kcal/mol
46 | ATATTCACGTGCGTAA | 0.22 kcal/mol
47 | GGGGTCACGTGATTAA | 0.23 kcal/mol
48 | TTTGACACGTGGTACG | -0.11 kcal/mol
49 | GGCCTCACGTGGGGGG | 0.12 kcal/mol
50 | CTGTGCACGTGTGGTA | -0.07 kcal/mol

Row | Sequence | relative binding free energy
51 | GGAATCACGTGGTGTC | 0.11 kcal/mol
52 | TCGTTCACGTGAGTAG | 0.29 kcal/mol
53 | CATTGCACGTGGGGCT | -0.13 kcal/mol
54 | AATACCACGTGTTAGG | 0.1 kcal/mol
55 | AGTATCACGTGGGTCA | 0.09 kcal/mol
56 | GTGGTCACGTGAGAGG | 0.35 kcal/mol
57 | GCATACACGTGGTGGA | 0.05 kcal/mol
58 | ACTGGCACGTGATAGG | -0.12 kcal/mol
59 | GGATACACGTGAGTGA | 0.22 kcal/mol
60 | TAATGCACGTGTTCGG | -0.07 kcal/mol
61 | GTATTCACGTGTAATT | 0.32 kcal/mol
62 | CAAGACACGTGGGTTG | -0.12 kcal/mol
63 | GCGGTCACGTGCTGTT | 0.07 kcal/mol
64 | AGGTCCACGTGTTGGA | 0.21 kcal/mol
65 | GCGCACACGTGGGGTT | 0.01 kcal/mol
66 | TGAAGCACGTGTAATG | -0.05 kcal/mol
67 | TGGACCACGTGGAGTG | -0.07 kcal/mol
68 | TTGTACACGTGTAGGC | -0.06 kcal/mol
69 | AGAGGCACGTGGTAGC | -0.17 kcal/mol
70 | GTAATCACGTGCAGGG | 0.33 kcal/mol
71 | GTTTACACGTGTTACT | 0.16 kcal/mol
72 | TTCTGCACGTGTTTTA | 0 kcal/mol
73 | ATTTACACGTGAGGGG | 0.21 kcal/mol
